In PubChem BioAssay AID1346428 (National Center for Advancing Translational Sciences (NCATS), 2018):
The whole screen tested about 48,000 compounds, of which about 1,200 (2.5%) were called active. Another 2% or so got no clear call; they are omitted.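 How the source made its calls: active means activation of at least 60% and not above a set upper limit (about 1 call in 100 departs from these limits); inconclusive means activation of 40% to 60%, or above that upper limit; inactive means activation under 40%.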 The list shows a part of the results.

Molecular target: Probable G-protein coupled receptor 32 (Homo sapiens) (UniProt O75388)
Experiment: qHTS for Agonists of Human Resolvin D1 Receptor DRV1; further: 0% is about no effect
Settings: CHO-K1 GPR32 beta-arrestin PathHunter luminescence, 90 min; at 76.9 µM; stronger effect = higher value; zero percent set by DMSO-only wells
In short: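 Agonism was scored as beta-arrestin recruitment to ProLink-fused GPR32 in stably transfected CHO-K1 cells, giving a chemiluminescent beta-Gal signal; compounds were incubated 90 min at 37 °C.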

Chain of UniProt O75388 (O75388 whole entry, looked up): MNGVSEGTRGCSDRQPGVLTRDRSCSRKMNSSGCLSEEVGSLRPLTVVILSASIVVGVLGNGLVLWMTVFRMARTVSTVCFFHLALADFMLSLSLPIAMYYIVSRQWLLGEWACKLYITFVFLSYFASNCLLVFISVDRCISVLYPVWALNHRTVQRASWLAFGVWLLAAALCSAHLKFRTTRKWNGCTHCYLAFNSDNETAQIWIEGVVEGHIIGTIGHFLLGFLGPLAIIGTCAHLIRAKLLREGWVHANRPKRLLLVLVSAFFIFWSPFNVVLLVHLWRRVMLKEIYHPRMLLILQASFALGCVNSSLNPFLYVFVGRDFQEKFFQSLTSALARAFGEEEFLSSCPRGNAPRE

activation, inactive:
Cc1cc(S(=O)(=O)Nc2cccc(-c3ccc(N4CCOCC4)nn3)c2)c(C)cc1Cl -8.54%
CCC(=O)Nc1cc(C(=O)NCc2ccc(C)cc2)ccc1S(=O)(=O)c1ccc(C)cc1 -27.1%
NCCC1CCCC(CCN)N1 (centres undefined) -7.89%
CCCC1O[C@@H]2C[C@H]3[C@@H]4CCC5=CC(=O)C=C[C@]5(C)[C@H]4[C@@H](O)C[C@]3(C)[C@]2(C(=O)CO)O1 (some centres undefined) -12%
Cc1ccc(C)c(CN2C(=O)c3ccccc3Sc3ccc(C(=O)NCc4ccco4)cc32)c1 -22.2%
Cc1cccc(OCc2ccc(-c3nc(C#N)c(N4CCN(c5ccccc5)CC4)o3)o2)c1 -12.8%
Cc1cc(C)c2oc(C(=O)Nc3c(C(=O)c4ccc(F)cc4)oc4ccccc34)cc(=O)c2c1 -3.4%
CCc1cccc(C)c1Nc1c(-c2ccc(N(C)C)cc2)nc2ncccn12 -17.5%
CC1CCC(NC(=O)C2(C)Cc3ccccc3C(=O)N2Cc2ccccc2Cl)CC1 (centres undefined) -16.9%
Cc1cc(Cl)ccc1NC(=O)CCS(=O)(=O)c1cc2c(cc1C)NC(=O)CO2 -25.4%
CCN(CC)c1ccc(NC(=O)Cn2c(C)c3cnn(-c4ccccc4)c(=O)c3c2C)c(C)c1 -16.9%
COC(=O)c1c(-c2cccs2)csc1NC(=O)c1cc(OC)cc(OC)c1 -6.59%
O=C(NCCSc1c(-c2ccc(Br)cc2)[nH]c2ccccc12)c1ccc(S(=O)(=O)N2CCOCC2)cc1 -10.7%
Cc1ccc(CNC(=O)C(CC(C)C)N2Cc3ccccc3C2=O)cc1 (centres undefined) -9.48%
Cc1cc(C)cc(NC(=O)C(Cc2ccccc2)N2Cc3ccccc3C2=O)c1 (centres undefined) -22.4%
CCNC(=O)CCSc1nnc(-c2ccc(O)cc2)o1 42.7%
COc1cccc(CNC(=O)Nc2cc(C(=O)NCc3cccc(F)c3)ccc2N2CCCC2)c1 -27.4%
CCC(Oc1ccc(F)cc1)C(=O)Nc1cc(-c2ccc(C)cc2)no1 (centres undefined) -16.8%
CCOc1cc(CNC(=O)c2ccc(NC(=O)c3nsc4ccccc34)cc2)ccc1OC -13.7%
CCN(CC)c1ccc(NC(=O)c2cc(CN3CCCC3)on2)c(C)c1 -12.3%
Cn1c(=O)c2ccccc2n2c(CCC(=O)N3CCN(c4cccc(Cl)c4)CC3)nnc12 -2.84%
CCOc1ccc(NC(=O)CC2C(=O)N(c3cccc(OC)c3)C(=O)N2C2CCCCC2)cc1 (centres undefined) -4.73%
Cc1cccc(NC(=O)CSc2nc(-c3cccs3)cc(C(F)(F)F)c2C#N)c1 -1.55%
CCN1CCN(c2csc3ccc(Cl)cc3c2=O)CC1 -33.1%
COc1ccc2c(C)c(CC(=O)NCCc3ccccc3)c(=O)oc2c1OC -1.53%
Cc1cc(C)cc(N2C(=O)CC(c3ccc(C(F)(F)F)cc3)C3=C2COC3=O)c1 (centres undefined) -3.68%
COc1ccccc1C(=O)Nc1cc(-c2cccc(Br)c2)nn1-c1ccccc1 -4.69%
COc1ccc(Cl)cc1NC(=O)C(C)n1nnc2sc3c(c2c1=O)CCCC3 (centres undefined) -12.1%
CCOc1ccc(NC(=O)Cn2nnc(C(=O)OC)c2C(=O)OC)cc1 11.4%
Cc1ccc(C(=O)NCC(=O)OCc2cc(=O)n3nc(C4CCCCC4)sc3n2)cc1 -4.73%
CCCCn1c(Oc2cccc(C(=O)OC)c2)nc2c1c(=O)n(C)c(=O)n2C -15.4%
COc1ccc(Cn2c(SCC(=O)NCc3ccccc3)nc3ccccc32)cc1 3.57%
Cc1ccc2c(c1)C(c1ccc(F)cc1)N(C(=O)C(C)C)CC(=O)N2 (centres undefined) 1.01%
COc1ccc(C(=O)NC2(C(F)(F)F)C(=O)NC(C)=C2C#N)cc1 (centres undefined) 3.43%
O=c1oc2ccc3ccccc3c2cc1-c1nnc(Nc2ccccc2)s1 -3.32%
CCc1cccc(NC(=O)Cn2nc(CC)n3c(cc4cc(C)ccc43)c2=O)c1 13%
CCCN(C(=O)CCn1cnc2onc(-c3ccc(F)cc3)c2c1=O)c1ccccc1C -8.4%
Cc1cc(C)cc(C(=O)Nc2c3c(nn2-c2ccccc2C)CS(=O)(=O)C3)c1 -3.03%
Cc1ccc(Cl)cc1N1CCN(C(=O)Cn2nc(C)n3c(cc4sccc43)c2=O)CC1 -0.301%
CCOC(=O)c1c(-c2ccccc2)csc1NC(=O)c1cc(-c2cccc(OC)c2)on1 -6.54%
O=C(Cn1nc2c(cc1=O)CCCC2)NCc1ccccc1Cl -6.36%
Cc1ccc(C(=O)Nc2nnc(SCc3cc(=O)n4ccc(C)cc4n3)s2)cc1 2.83%
CCC(=O)N1c2nc(C(C)C)nn2C2(CCCCC2)[C@@H]2CCCC[C@@H]21 -11%
Cc1cc(C)cc(NC(=O)Cn2nnc(C(=O)NCc3ccco3)c2N)c1 28.1%
O=C(CN1C(=O)COc2ccc(S(=O)(=O)N3CCCCCC3)cc21)N1CCN(c2ccccc2)CC1 -11.6%
COc1ccc(Cl)cc1NC(=O)C(C)N1Cc2ccccc2C1=O (centres undefined) -10.5%
COc1ccc(NC(=O)CN2CCN(S(=O)(=O)c3ccc(Br)cc3)CC2)cc1 -29.5%
CCOC(=O)c1cccc(NC(=O)C2CCN(c3nnc(C)c4c(C)n(-c5ccccc5)nc34)CC2)c1 7.9%
COCCNC(=O)Cn1c(=O)n(-c2ccc(C)c(C)c2)c(=O)c2c3c(sc21)CCCCC3 -8.15%
O=C(NNc1ncnc2c1cnn2-c1ccccc1)c1ccccc1 -23.7%
COc1ccc(NCc2cccn2-c2nnc(N3CCOCC3)s2)c(OC)c1 23.8%
CCOc1cc(CNC(=O)C(NS(=O)(=O)c2cccs2)C(C)C)cc(OCC)c1OCC (centres undefined) -3.98%
O=C(Cn1c(SCc2cccc(F)c2)nc2ccncc21)Nc1ccc(Cl)cc1F 0.748%
COc1ccc(N2CCN(S(=O)(=O)CCNC(=O)Cc3ccc(-c4ccccc4)cc3)CC2)cc1 -14.9%
CCCc1oc2ccc(NS(=O)(=O)c3ccc(OC)cc3)cc2c1C(=O)OCC -16.9%
COc1ccc(C(=O)Nc2ccc3nc(N4CCCCC4)cc(C)c3c2)c(OC)c1 3.22%
CCOC(=O)c1c(NC(C)=O)c2c3c(sc2n1Cc1cccc(Cl)c1)CCCC3 -28.8%
Cc1ccc(C(CC(=O)Nc2ccc(C)cc2C)N2Cc3ccccc3C2=O)cc1 (centres undefined) -4.35%
CCOc1ccccc1CNC(=O)c1cccc(NC(=O)c2nsc3ccccc23)c1 -10.3%
Cc1ccc(-n2c(=O)c3sccc3n(Cc3cc(=O)n4ccccc4n3)c2=O)cc1 -10.2%
COc1ccc(C(=O)N2CCC(C(=O)Nc3ccc(OC)cc3OC)CC2)cc1 11.5%
CCN(C(=O)Cn1nc(Cc2cccnc2)c2ccccc2c1=O)c1cc(C)ccc1C -44.1%
Cc1ccccc1C(=O)Nc1nnc(S(=O)(=O)N2CCCc3ccccc32)s1 16.3%
Cc1cccc(-c2cc(NC(=O)COc3ccccc3F)n(-c3ccccc3)n2)c1 -7.42%
Cc1nnsc1C(=O)Oc1ccccc1Cl 5.01%
O=C1C(c2ccc(C(F)(F)F)cc2)=C(Nc2ccc(Cl)cc2)c2ccccc21 -14.4%
Cc1ccc(NC(=O)CSc2nnc(-c3cc4occc4n3C)n2-c2ccccc2C)cc1F -26.2%
CCn1c(C(=O)Nc2cc(C)cc(C)c2)cc2sc(Cl)cc21 -1.87%
COc1ccc(C(=O)N=c2sc3cc(Cl)ccc3n2C)cc1 9.77%
Cc1ccc(-c2cn3c4c(=O)n(C)c(=O)n(C)c4nc3n2-c2cccc(Cl)c2)cc1 -0.72%
CSc1ccccc1NC(=O)CCS(=O)(=O)c1nc(-c2cccs2)cc(C(F)(F)F)n1 -10.8%
CCN(CC)CCOC(=O)c1ccc(NC(=O)CCn2c(=O)oc3ccccc32)cc1 11.1%
N#Cc1ccccc1NC(=O)C(=O)NCC(c1cccnc1)N1CCc2ccccc2C1 (centres undefined) -18.8%
CN1[C@@H]2CC[C@H]1CC(OC(=O)c1c[nH]c3ccccc13)C2 (some centres undefined) -18.8%
CCCCN(C)c1ncnc2c1cnn2-c1cccc(Cl)c1 -9.01%
COc1ccc(OC)c(CCNC(=O)C(C)n2nc(C)c3c(C)n(-c4ccc(C)cc4)nc3c2=O)c1 (centres undefined) 8.51%
CCOc1ccccc1NC(=O)C1CCCN(S(=O)(=O)c2ccc3c(c2)CCCN3C(C)=O)C1 (centres undefined) 0.717%
CCC(=O)N1CCc2cc(S(=O)(=O)NCCC(=O)Nc3cccc(C)c3C)ccc21 -2.73%
Cc1cc(SCC(=O)NCc2ccccc2)nc(=O)[nH]1 -7.64%
COc1cccc(CNc2ccc3c(c2)ncn3C)c1OC 11.7%
O=C(NCc1ccccc1Br)c1ccc(-n2cnc3cccnc32)cc1 -22.7%
COc1ccc(N(CC(=O)Nc2ccc(Cl)cc2C)S(=O)(=O)c2ccccc2)c(OC)c1 -8.03%
COc1cc(-c2nnc(SCC(=O)N3CCCc4ccccc43)o2)cc(OC)c1OC 7.43%
CCc1ccc(S(=O)(=O)c2nnn3c2nc(Nc2cccc(C)c2C)c2sccc23)cc1 -5.55%
